Results reported in PubChem BioAssay AID488969 (Vanderbilt High Throughput Screening Facility, 2010).
The full ranking holds about 110,000 compounds; the median of “z-score” is about -0.1, and the highest 2% start at about 2. This is one part of the list.

Target: Metabotropic glutamate receptor 8 (Rattus norvegicus) (UniProt P70579)
Assay: mGluR8 Gi/Go-coupled signaling modulation – cell-based, rat, thallium flux, HTS, primary screen (AID 488969)
Conditions: HEK293 rat mGluR8, GIRK (G protein-gated inwardly rectifying potassium channel) thallium flux, FluoZin2; at 10 µM; stronger effect = higher value; submaximal glutamate (EC20) added with thallium

Chain of UniProt P70579 (P70579 whole entry, looked up): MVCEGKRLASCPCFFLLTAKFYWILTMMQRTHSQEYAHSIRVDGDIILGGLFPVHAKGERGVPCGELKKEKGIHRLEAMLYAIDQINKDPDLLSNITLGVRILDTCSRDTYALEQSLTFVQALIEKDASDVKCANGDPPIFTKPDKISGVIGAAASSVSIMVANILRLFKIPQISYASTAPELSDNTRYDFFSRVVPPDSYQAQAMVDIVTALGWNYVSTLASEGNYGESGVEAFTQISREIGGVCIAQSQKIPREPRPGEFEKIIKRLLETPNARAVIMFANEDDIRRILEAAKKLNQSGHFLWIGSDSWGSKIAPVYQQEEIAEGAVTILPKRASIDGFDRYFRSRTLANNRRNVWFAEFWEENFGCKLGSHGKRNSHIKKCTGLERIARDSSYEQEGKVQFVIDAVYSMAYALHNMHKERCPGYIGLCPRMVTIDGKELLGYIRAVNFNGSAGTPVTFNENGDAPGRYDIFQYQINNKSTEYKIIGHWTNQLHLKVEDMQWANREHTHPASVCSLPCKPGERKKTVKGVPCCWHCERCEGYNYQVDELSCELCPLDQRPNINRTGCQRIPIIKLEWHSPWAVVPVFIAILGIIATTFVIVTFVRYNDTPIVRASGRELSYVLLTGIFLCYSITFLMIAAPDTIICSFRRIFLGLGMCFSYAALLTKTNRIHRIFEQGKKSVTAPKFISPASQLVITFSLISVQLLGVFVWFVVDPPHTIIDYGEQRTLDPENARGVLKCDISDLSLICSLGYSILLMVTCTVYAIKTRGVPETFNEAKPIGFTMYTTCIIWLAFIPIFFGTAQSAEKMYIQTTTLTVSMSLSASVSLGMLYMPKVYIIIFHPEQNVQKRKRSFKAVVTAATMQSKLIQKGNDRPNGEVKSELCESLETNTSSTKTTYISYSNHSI

Compound | z-score
COc1ccc(/C=C/C(=O)OCC(=O)Nc2ccc(OC)c(S(=O)(=O)N3CCCCC3)c2)cc1 | -0.323
COc1ccc(CCC(C)Nc2cccc(F)c2)cc1 (stereo unspecified) | -0.259
Cc1cc(Cl)c(OCCOCCN2CCC(C)CC2)c(Br)c1 | 0.348
CC(C)CCn1c(CN2CCN(C(=O)c3ccco3)CC2)nc2c1c(=O)n(C)c(=O)n2C | 0.0621
COc1ccc(NC(=O)CSc2ncccc2C(=O)OC(C)C)cc1OC | -0.26
C=CCOC(=O)C1=C(C)N=C2SCCC(=O)N2C1c1cccs1 (stereo unspecified) | -0.795
CCOC(=O)CSc1nc2ccccc2c(=O)n1C1CCCC1 | 0.684
CN1/C(=C/C=N/n2cnnc2)C(C)(C)c2ccccc21 | -0.518
CN(C)S(=O)(=O)c1ccc2[nH]cc(/C=C/c3nc4ccccc4c(=O)n3-c3ccccc3)c2c1 | -0.677
Cc1ccc(CCNC(=O)NC(C)(C)C)cc1 | -0.427
COc1c2occc2cc2ccc(=O)oc12 | -0.548
CCC(C)(C(=O)NC1CCCCC1)N(Cc1ccco1)C(=O)c1ccc2c(c1)OCO2 (stereo unspecified) | -0.0657
O=C(Oc1c(Cl)cc(Cl)c2cccnc12)N1CCCCC1 | 0.0706
O=C(NC(=S)N1CCOCC1)C12CCC3CC(CC(C3)C1)C2 | 0.411
COc1cc(CN2CCN(c3cc(C)ccc3C)CC2)cc([N+](=O)[O-])c1O | 0.0603
O=C(CCS(=O)(=O)Cc1ccccc1)N1CCc2ccccc2C1 | -0.136
CCCc1nnc(SCCSc2nnc(CCC)n2N)n1N | 0.314
CCc1cc2cc(C)ccc2nc1SCC(=O)N1CCN(C(=O)c2ccco2)CC1 | 1.74
Cc1cccc(C)c1OCC(O)Cn1nnc2ccccc21 (stereo unspecified) | -0.0886
Cc1ccc(CCc2nnc(SCC(=O)Nc3ccccc3Cl)n2-c2ccccc2)o1 | -0.43
O=c1ccn(Cc2ccccc2Cl)cc1 | -0.259
O=C(O)c1ccc2noc(-c3ccccc3)c2c1 | 0.475
COc1ccc(N2CCN(C(=O)c3ccc(NS(=O)(=O)c4cccc(F)c4)cc3)CC2)cc1 | -0.764

Compound | z-score
CCC(=O)Nc1cccc(NC(=S)NC(=O)c2cccc(C)c2)c1 | 0.23
N#Cc1c(-c2ccc(Cl)cc2)ccn2nc(CCC(=O)O)nc12 | -0.136
OCCn1c(Cl)nc2ccccc21 | 0.583
CS(=O)(=O)Nn1cnc2ccccc2c1=O | 0.271
O=C(COC(=O)Cc1ccc(Cl)cc1Cl)Nc1ccc(OC(F)F)cc1 | -0.0649
CCCCc1ccc(Nc2ncnc3nc[nH]c23)cc1 | 2.82
CC(C)(C)c1ccc(C(=O)Nn2c(CCC(=O)O)ccc2-c2cccs2)cc1 | 0.244
Cc1cc(Cl)c(OCCCn2cncn2)c(Br)c1 | 0.958
CC1CCC(N2CCN(S(C)(=O)=O)CC2)CC1 (stereo unspecified) | -0.836
NC(=O)CC[C@H](NC(=O)OCc1ccccc1)C(=O)OCc1ccc(Cl)cc1 | -0.325
CCn1cc(C(=O)N2CCN(Cc3ccc4c(c3)OCO4)CC2)c(=O)c2ccc(C)nc21 | -0.451
Nc1ccc2oc(-c3ccccn3)nc2c1 | -0.214
CCN1CCN(C(c2ccccc2F)c2nnnn2Cc2ccc3c(c2)OCO3)CC1 (stereo unspecified) | 0.762
COc1ccc(-c2nc(-c3ccccc3)c(-c3cc([N+](=O)[O-])ccc3C)[nH]2)cc1O | -0.815
COc1ccc(OCCNc2cc(N3CCCCC3)ccc2[N+](=O)[O-])cc1 | -0.255
C=C(C)c1cccc(C(C)(C)NC(=O)N2CCN(CC)CC2)c1 | -0.189
CN(C)/C=C1\C(=O)N(c2ccc([N+](=O)[O-])cc2)N=C1c1ccccc1 | -0.166
O=C(OCCN1C(=O)c2ccccc2C1=O)c1cccc(OC(F)F)c1 | 0.266
CC(OC(=O)c1ccccc1NS(=O)(=O)c1cccc(N)c1)C(=O)N(C)Cc1ccccc1 (stereo unspecified) | 0.0162
COC(=O)c1c(NC(=O)CN2CCN(S(=O)(=O)c3ccccc3)CC2)sc2c1CCC(C)C2 (stereo unspecified) | -0.486
Cn1c(=O)oc2cc(S(=O)(=O)Nc3ccc4c(c3)OCCO4)ccc21 | 0.0505
CC(=O)Nc1ccc(/C(C)=N/NS(=O)(=O)c2ccccc2)cc1 | -0.0967
O=C(NCC(=O)N(CC1CCCO1)C(C(=O)NC1CCCCC1)c1ccccc1)c1cccs1 (stereo unspecified) | -0.0826

Compound | z-score
Cc1ccc(Sc2ccc(NC(=O)CCl)cc2)cc1C | -0.101
CCOC(=O)c1cnn(-c2cc(C)nc3c(-c4ccccc4)c(C)nn23)c1N | 0.147
O=C(CN(Cc1ccc(F)cc1)C(=O)Cn1nnc2ccccc21)NCC1CCCO1 (stereo unspecified) | -0.645
CSc1ccccc1NC(=O)c1ccccc1N(C)S(C)(=O)=O | -0.0234
CCc1ccc(NC(=O)CN(c2ccc3c(c2)OCO3)S(=O)(=O)c2c(C)noc2C)cc1 | -0.106
Cc1oc(-c2cc(Cl)cc(Cl)c2)cc1C(=O)NCCc1ccccc1 | -0.179
O=S(=O)(/C=C/c1ccccc1)n1cnc2ccccc21 | -0.0615
CC(C)CNC(=O)c1cccc(NC(=O)c2ccco2)c1 | -0.479
CCCCn1nc2cc(C(=O)NCC3CC3)ccc2c1OCC | 0.279
O=C(CSc1nnc2n1CCCN2C(=S)Nc1ccc(Cl)cc1)c1ccccc1 | -0.14
O=C(CSC1=NC(=O)C(c2ccccc2)C(=O)N1)Nc1ccccc1Cl (stereo unspecified) | -0.614
OCCOCCNc1ncnc2c1cnn2-c1ccccc1 | 0.137
Cc1sc2nc(C(C)C)oc(=O)c2c1C | 0.56
O=C(C1=NN[C@@H]2C(=O)N(c3cccc(C(F)(F)F)c3)C(=O)[C@H]12)c1ccc2ccccc2n1 | -0.547
COc1ccc(N2CCN(Cc3nc(-c4ccc(Cl)cc4Cl)no3)CC2)cc1 | -0.276
CCC(Sc1nc(=O)cc(N)n1-c1ccccc1)C(=O)Nc1cc(C)on1 (stereo unspecified) | -0.0468
CN(C)c1ccc(/C=C2\SC(=O)N(CC(O)Cn3c4ccccc4c4ccccc43)C2=O)cc1 (stereo unspecified) | 0.115
C=CCn1c(SCC(=O)c2ccc(OC)cc2)nnc1-c1cc2cccc(OC)c2o1 | -0.346
CCCc1cc(C(=O)NNC(=S)NCC)c2ccccc2n1 | -0.123
O=c1c(-c2ccc(F)cc2)coc2c3c(ccc12)OCCO3 | -2.73
CCOC(=O)C1CCN(C(=O)C2CCN(c3nc4ccc(OC)cc4s3)CC2)CC1 | -1.52
O=C(c1cccs1)N1CCN(c2ccc(F)cc2)CC1 | 0.0587
Cc1ccc(Oc2ccc(NC(=O)CSc3n[nH]c(N)n3)cc2)cc1 | -0.066

Compound | z-score
Cc1cccc2sc(NC(=O)CN(C)S(=O)(=O)c3ccc(Br)s3)nc12 | 0.241
CCOc1cccc(CNc2ccc(O)cc2)c1OCc1ccc(Cl)cc1Cl | -0.117
CCc1nccn1S(=O)(=O)c1cc(C)c(OC)cc1C | -0.0861
Cc1nc2sc3c(NCc4ccco4)ncnc3c2c2c1COC(C)(C)C2 | -0.61
CCC(=O)Oc1ccc(C(=O)Nc2cccc(C(=O)c3ccccc3)c2)cc1 | 0.022
CCC1(C)OC(=O)NN(c2ccc(C)cc2)C1(C)O (stereo unspecified) | -0.143
Cc1cc(C(F)F)n2ncc(C(=O)NCc3ccccc3C(F)(F)F)c2n1 | -0.759
CCOC(=O)CSCC(=O)Nc1ccc(S(=O)(=O)N2CCCCC2)cc1 | 0.13
Cc1ccc(OCC(=O)N(c2ccccn2)C2CCCCC2)c(C)c1 | -0.0973
O=C(Nc1ccc(F)cc1F)c1ccc(COc2c(F)c(F)cc(F)c2F)o1 | -0.425
Nc1nonc1C(=O)NCCNS(=O)(=O)c1ccc(F)cc1 | -0.403
O=C1C=C(NCC2CCCO2)C2(CCCCC2)O1 (stereo unspecified) | -0.0518
COC(=O)CS(=O)(=O)c1nnc([C@H](Cc2ccccc2)NC(=O)OC(C)(C)C)o1 | -1.05
COc1ccc(OCC(=O)N2CCN(C(=O)COc3ccccc3)CC2)cc1 | 0.0899
CCOc1ccc(-c2csc(NC(=O)C3CCCO3)n2)cc1 (stereo unspecified) | -0.57
CCOC(=O)C1=C(O)c2ccccc2C(=O)/C1=C\c1ccc(CC)cc1 | -0.196
Cc1ccc(CSc2nnc(-c3cccnc3)o2)cc1 | -0.136
O=C(NCc1ccc(F)cc1)c1cc(-c2ccco2)on1 | 0.0586
CCS(=O)CCSc1nc2ccccc2s1 (stereo unspecified) | 0.19
Cc1cc(C)nc(SCC(=O)Nc2ccc(S(=O)(=O)N3CCCCC3)cc2)n1 | 0.159
CC1=C(C)/C(=N/OC(=O)c2cccc([N+](=O)[O-])c2)C=CC1=O | -0.204
COC(=O)c1nc(NC(=O)c2ccc(Br)cc2)n[nH]1 | -0.04
O=C(O)Cc1ccc(N=Cc2c(O)ccc3ccccc23)cc1 | 0.101

Compound | z-score
CC(CCc1ccccc1)C(=O)NO (stereo unspecified) | -0.196
CCc1cccc(NC(=O)CSCc2cc(=O)[nH][nH]2)c1 | 0.767
COC(=O)c1oc2ccccc2c1-n1cccc1 | -0.249
CC(C)n1c(=N)c(C(=O)NCCc2ccccc2)cc2c(=O)n3ccccc3nc21 | 0.515
Cc1cc(C)cc(N(CC(=O)N/N=C/c2ccncc2)S(=O)(=O)c2ccccc2)c1 | -0.365
Cc1cc2oc(C(=O)NCc3ccc4c(c3)OCO4)c(C)c2cc1C | 0.066
COC(=O)Nc1ccc(S(=O)(=O)N2CCCCC2C(=O)NCc2ccco2)cc1 (stereo unspecified) | -0.296
CC(=O)Nc1ccc(Nc2cc(C)nc3c(-c4ccc(Cl)cc4)cnn23)cc1 | 0.0199
Cc1ccc(CCN2CC(C(=O)N3CCN(c4ccc(F)cc4)CC3)CC2=O)cc1 (stereo unspecified) | 0.106
COCc1cc(=O)[nH]c2cc(NC(=O)C(F)(F)F)c(C)cc12 | -0.236
Cc1cc(Cl)c(S(=O)(=O)NCC2CCCO2)cc1OCC(N)=O (stereo unspecified) | -0.00128
N#Cc1c(SCC(=O)N2CCCCC2)nsc1SCC(=O)N1CCCCC1 | -0.232
O=C(O)c1ccc(NCc2cccnc2)cc1 | -0.24
COc1cccc(C(=O)Nc2ccc(S(=O)(=O)Nc3onc(C)c3C)cc2)c1 | -0.395
N#CC1=C(N)N=C(SCc2cccc3ccccc23)C(C(N)=O)C12CCCCC2 (stereo unspecified) | -0.44
CC(C)NC(=O)c1ccc(-c2cccc(C(F)(F)F)c2)o1 | -0.135
Cc1cc(=O)[nH]c(SCC(=O)NCCc2ccccc2)n1 | 1.96
Cc1ccnc(SCCn2c(N3CCC(C)CC3)nc3c2c(=O)[nH]c(=O)n3C)n1 | -0.0416
COCCn1cnc2cc(C)c(C)cc21 | -0.527
